# Source: publication PMC6919601, “Identification of Plasmodium dipeptidyl aminopeptidase allosteric inhibitors by high throughput screening” (PLoS ONE, 2019)
# Hit rate of the full screen: of about 110,000 compounds, about 230 (0.21%) showed an effect of 50% or more. Some of the results follow.
# Target: DPAP1 (Plasmodium falciparum, UniProt Q8IIJ9)
# Test: primary screen, percent inhibition; read by cleavage of a fluorogenic dipeptide substrate; higher = more effect of the substance
# Design: species or system P. falciparum D10 trophozoite lysates; single well
# 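Note: 30 min substrate incubation versus DMSO and 10 µM JCP410 controls.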
# DPAP1, sequence (Q8IIJ9 whole entry, looked up): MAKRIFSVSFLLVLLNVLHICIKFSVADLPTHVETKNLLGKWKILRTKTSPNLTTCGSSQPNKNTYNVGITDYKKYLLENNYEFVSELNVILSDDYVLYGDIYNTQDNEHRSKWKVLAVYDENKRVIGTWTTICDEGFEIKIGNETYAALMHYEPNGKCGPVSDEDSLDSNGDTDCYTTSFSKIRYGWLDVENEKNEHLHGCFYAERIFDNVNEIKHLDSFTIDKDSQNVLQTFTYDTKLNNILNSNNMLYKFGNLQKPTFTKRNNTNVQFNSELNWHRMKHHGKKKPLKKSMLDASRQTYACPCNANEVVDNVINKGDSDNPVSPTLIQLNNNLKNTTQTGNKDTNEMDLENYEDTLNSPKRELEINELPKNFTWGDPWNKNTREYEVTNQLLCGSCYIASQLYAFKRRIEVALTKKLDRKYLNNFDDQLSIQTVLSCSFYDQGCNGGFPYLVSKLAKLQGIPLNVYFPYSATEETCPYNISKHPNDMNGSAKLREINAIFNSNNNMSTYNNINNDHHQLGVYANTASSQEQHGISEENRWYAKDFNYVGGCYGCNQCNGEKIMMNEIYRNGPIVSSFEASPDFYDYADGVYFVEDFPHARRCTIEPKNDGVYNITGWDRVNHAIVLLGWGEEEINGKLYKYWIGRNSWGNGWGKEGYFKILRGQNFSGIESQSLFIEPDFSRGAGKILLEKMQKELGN
row,SMILES,% Inhibition @ 10 uM [%]
1,Cc1cc2c(c(=O)n1Cc1cccnc1)C(c1cccnc1)C(C#N)=C(N)O2 (stereo not shown),-3.39
2,O=C(CCn1cnc2onc(-c3ccc(F)cc3)c2c1=O)NCCc1ccc(Cl)cc1,-4.97
3,CCN(CC)CCNC(=O)C1c2cc(OC)c(OC)cc2C(=O)N2CCc3ccccc3C12 (stereo not shown),-1.54
4,CCCN1CCC(N2CCCC2)CC1,2.94
5,Cc1cc(C)c(C)c(S(=O)(=O)Nc2ccc(C(=O)N3CCCC3)cc2)c1C,-14.4
6,Cc1ccc(NC(=O)C(c2ccncc2)N(C)C(=O)CNC(=O)c2ccccc2)cc1 (stereo not shown),-3.26
7,Cc1cccc(C(=O)N2CCCN(C(=O)c3cccc(C)c3)CC2)c1,-10.6
8,NC(=O)c1c(NC(=O)c2ccc(Cl)c([N+](=O)[O-])c2)sc2c1CCCC2,-5.28
9,CNc1c(NC(=O)Cc2ccc(OC)c(OC)c2)c(=O)oc2ccccc12,0.128
10,COc1ccccc1-n1c(O)cc(=O)nc1SCc1ccccc1,0.343
11,Clc1ccc(OCCSc2n[nH]c3nc4ccccc4n23)cc1,-5.38
12,CC(O)(C#Cc1ccccc1)c1ccc(N2CCCCC2)c(F)c1 (stereo not shown),-1.5
13,Cc1cc(C)cc(NC(=O)c2ccncc2)c1,4.22
14,O=C(CCc1ccccc1)Nc1scc(-c2ccccc2)c1C(=O)O,-3.63
15,O=C1Cc2ccccc2C(c2c(Cl)cccc2Cl)N1 (stereo not shown),-2.48
16,NC(=O)c1c(NC(=O)Cc2ccc(Cl)cc2)sc2c1CCCCC2,0.316
17,CC(=O)NC(=O)/C(=C(/C)Nc1ccccc1)c1ccccc1,-1.88
18,NC(=O)CSc1nc2c(c(=O)n1CCc1ccccc1)SCC2,-4.32
19,Cc1nn(-c2nc3ccccc3[nH]2)c(O)c1C1OC(=O)c2ccccc21 (stereo not shown),-3.5
20,Cc1sc(NC(=O)c2ccccc2C(=O)O)c(C(N)=O)c1C,-2.85
21,CCOC(=O)c1c(NC(=O)c2cc3ccccc3o2)sc2c1CCCC2,1.25
22,CCCCN(CCNC(=O)c1nn(C)c2c1CSc1ccccc1-2)Cc1ccco1,0.00665
23,Cn1c2ccccc2c2nnc(SCC(=O)Nc3ccc(Cl)cn3)nc21,14.1
24,CCCc1nn(C)c(C(=O)Nc2ccccc2C)c1Cl,-1.84
25,COc1ccc(Nc2nc(Cl)nc(NCc3cccnc3)n2)c(OC)c1,0.823

row,SMILES,% Inhibition @ 10 uM [%]
1,Cc1cc(C)n(-c2ccc(NC(=O)Cn3nc(C(F)(F)F)cc3C3CC3)cc2)n1,-1.36
2,CCOc1cc(C(=O)Nc2cc(C)c(C)cc2O)cc(OCC)c1OCC,-6.77
3,CCOc1ccccc1OCc1nn2c(-c3cccc(Cl)c3)nnc2s1,2.89
4,CCC(=O)N1C(=O)CCN(C(C)=O)c2ccccc21,1.43
5,CCOc1cc(/C=C2/NC(=O)N(CC(=O)Nc3cccc(C)c3)C2=O)cc(Cl)c1O,2.44
6,CCOC(=O)c1sc2ncc3cc4ccccc4nc3c2c1N,-5.63
7,CCOc1ccc2oc(=O)cc(CN3CCN(C(=O)c4ccc(OC)cc4OC)CC3)c2c1,-2.84
8,Cc1cc(C)nc(SCC(=O)Nc2c(C)n[nH]c2C)n1,-4.78
9,O=C(O)CC1c2ccccc2Oc2ccccc21,3.24
10,Cc1ccc(N(CC(=O)Nc2ccccc2-c2ccccc2)S(C)(=O)=O)cc1,-6.65
11,COc1cc(C2C3=C(O)CC(C)(C)CC3=Nc3ccccc3N2C(=O)C(C)C)cc(OC)c1OC (stereo not shown),2.76
12,CS(=O)(=O)N1CCCC(C(=O)N2CCC3(CC2)OCCO3)C1 (stereo not shown),3.79
13,CCN(CC)c1c(S(=O)(=O)c2ccc(C)cc2)cnc2ccc(OC)cc12,-5.54
14,CCOc1cc(C2C(C(=O)OC)=CN(C(C)C)C=C2C(=O)OC)cc(Br)c1O,0.219
15,CCCCN1CN(CCC)CNC1=S,-3.74
16,COc1ccc(S(=O)(=O)Nc2ccc(C)c(Cl)c2)cc1,2.22
17,Cc1ccc(S(=O)(=O)N(CC(=O)Nc2ccc3c(c2)OCCO3)Cc2ccc(Cl)cc2)cc1,-5.27
18,COc1cccc(-c2nc(CS(=O)(=O)CC(=O)NC(C)C34CC5CC(CC(C5)C3)C4)c(C)o2)c1 (stereo not shown),-3.7
19,CN1CCN(CC(=O)N2CCn3c4c(c5cc(C6CCCCC6)ccc53)CCCC42)CC1 (stereo not shown),-1.41
20,CCOc1ccc(/N=C2\SC(C(=O)O)CC(=O)N2C)cc1 (stereo not shown),-10.7
21,Nc1cc(N)c2c(c1)C(=O)c1ccccc1C2=O,-0.771
22,C/C(=C\c1ccccc1)c1nnc2[nH]c(=O)n(C)c(=O)c2n1,-6.5
23,COC(=O)c1ccc(Cn2nc(-c3cc(C)ccc3C)ccc2=O)cc1,-1.16
24,CCN(Cc1ccccc1)C(=O)CSc1nncn2c1cc1sccc12,-13.7
